# Test results taken from ChEMBL document CHEMBL4888484, “Replenishing the malaria drug discovery pipeline: Screening and hit evaluation of the MMV Hit Generation Library 1 (HGL1) against asexual blood stage Plasmodium falciparum ,using a nano luciferase reporter read-out” (2022).
# Among all 150,000 compounds or so, about 540 (0.36%) showed an effect of 50% or more. The list shows a part of the results.
# Tested on: Plasmodium falciparum
# Assay: Primary screen in NF54 nanoGlo assay, in single point, at 2uM, 72h; a lower Z score goes with more inhibition
# Type: functional, Erythrocyte
# Settings: timepoint 72 hour
Structure (SMILES),% Inhibition,Z score
COc1ccccc1S(=O)(=O)N1CCC(=C2CC2)CC1,-19%,2.16
Cc1cccc(C(=O)N2CCC[C@@]3(CCN(Cc4sc(C)nc4C)C3)C2)c1,-9%,1.46
CC1(C)C(=O)NCCN1C(=O)c1cccs1,-5%,1.02
Cc1cc(=O)c(C(=O)N2CCN(c3cccc(Cl)c3)CC2)c(CC2CCCC2)n1C,-2%,0.21
CCCC1(CCC)NC(=O)N(CC(=O)NCC(=O)Nc2ccccc2CC)C1=O,6%,-1.18
CC(C)N(Cc1ccon1)CC(C)(C)O,-5%,0.74
Cc1cccc(CC(=O)N[C@H](c2cccnc2)C2CCOCC2)c1,-1%,0.11
FC(F)(F)c1cc(NCC2CC2)ncn1,-8%,1.26
CCc1ncc(C(=O)N2CCC[C@H]2C(=O)N2CCCCC2)cn1,-11%,1.4
O=C(NCC1(O)CCOCC1)c1ccc(Cl)cn1,29%,-3.22
C[C@@H](N)c1c(Cl)ccc(F)c1Cl,5%,-0.74
N#Cc1ccccc1-c1ccccc1C(=O)N[C@H](CO)CN1CCCCC1,-3%,0.49
COc1ccc(Cc2nc(NC(=O)CCNc3ncccn3)n[nH]2)cc1,-9%,1.1
CCCn1nc(C)c(Cn2ccnc2[C@H]2CCOC(C)(C)C2)c1C,-15%,1.37
OC[C@@H]1C[C@H](O)CN1C[C@H](O)c1ccc(-c2ccc(Br)cc2)cc1,-1%,0.24
Cc1ccc(OC2CCN(C(=O)CCC3CCCC3)CC2)nn1,-8%,1.51
O=S(=O)(Nc1cncc(N2CCCC2)n1)c1cncc(F)c1,-6%,0.96
Cc1nc(C(=O)N(C)CCCN(C)C(=O)OC(C)(C)C)c(C)o1,-3%,0.44
COCC(C)(C)NC(=O)N[C@H](C)C(O)(c1ccccc1)c1ccccc1,0%,0.07
O=C(C1NCCCC1c1ccccc1)N1CCN(C2CCOC2)CC1 (stereo not drawn),-18%,1.97
COCc1ccc(C(=O)N[C@@H](C)CN2CCCCC2)o1,-18%,2.77
O=S1(=O)NC(CN[C@H]2CCc3ncnn3C2)=Nc2ccccc21,-5%,1.05
c1cn(-c2ccc(-n3ccnc3)nn2)cn1,-10%,1.29
COc1cccc(CN2CCC[C@H](Cn3c(C)cnc3C3CCOCC3)C2)c1,2%,-0.23
Cn1cc(CCN=C(N)N2CCN(c3ccc(F)cc3)CC2)cn1,-14%,1.59
Cn1c(CN2CCCC(C3(C)NC(=O)NC3=O)C2)nc2ccccc21 (stereo not drawn),-10%,1.62
Cc1nc(N(C)C)ncc1-c1nc(-c2ccco2)nn1CCO,-5%,0.6

Structure (SMILES),% Inhibition,Z score
CC(C)n1ncc2c(C(=O)N(C)C3CCCCC3)cc(-c3ccc4c(c3)OCCO4)nc21,-7%,0.6
O=C(Cn1cnc2cccc(F)c2c1=O)N1CCN(c2ncccn2)CC1,-6%,0.65
COc1ccccc1CN1CCC(CN(CC(C)C)C(=O)c2nonc2C)CC1,8%,-1.11
O=c1c2ccccc2ncn1Cc1nc([C@H]2CCOC2)no1,-5%,0.83
CCCN(C[C@H]1CCCCO1)C(=O)Nc1ccc(F)c(N2CCNC2=O)c1C,-3%,0.62
Cc1ccc(CN2CCn3nnc(CCC(=O)N4CCOCC4)c3C2)s1,-7%,1.39
CCOC(=O)C[C@H](c1cccc(Cl)c1)c1nn[nH]n1,-10%,1.4
O=C(c1cn[nH]c1)N1CCC([C@H]2c3[nH]cnc3CCN2Cc2cccnc2)CC1,-7%,1.02
COc1cc(Cl)c(NC(=O)[C@H]2C[C@H](OC)CN2S(C)(=O)=O)cc1C,3%,-0.34
COC[C@@]1(C)CCN(C(=O)CCc2cncs2)C1,0%,0.04
CCn1cc(CNc2[nH]nc(C)c2Br)cn1,2%,-0.32
CCCCNC(=O)C(C)N1CCCC(C(=O)O)C1 (stereo not drawn),-18%,2.49
O=C(c1ccc2c(c1)OCCCO2)N1CCN(S(=O)(=O)c2ccc(Cl)cc2)CC1,-8%,0.8
O[C@H]1CCN(c2ncc(C(F)(F)F)cc2Cl)C1,6%,-1.01
C[C@@H](Cn1cncn1)NS(=O)(=O)c1ccc2c(c1)C(=O)N(C)C2=O,-2%,0.37
COC(=O)c1c(NC(C)=O)c2cc(N[C@@H](C)CC(C)(C)OC)cnc2n1CCc1c[nH]c2ccccc12,5%,-0.71
Cc1nc(C(C)C)sc1C(=O)N1CCNC(=O)C1,-11%,1.78
CC(NC(=O)c1cccs1)C(c1cccs1)N1CCN(c2ccccc2)CC1 (stereo not drawn),6%,-0.95
O=S(=O)(c1cccc(C(F)(F)F)c1)N1CCc2nc(-c3ccc(F)cc3)ncc2C1,10%,-1.5
COc1ccc(N2C(=O)C3C4C=CC(C4=C4CCCCC4)C3C2=O)cc1 (stereo not drawn),-2%,0.23
CN(C)Cc1ccc(NC(=O)Cc2ccn[nH]2)c(F)c1,-13%,1.81
Cc1csc([C@H](C)N(C)C[C@H]2CC[C@H](O)CC2)n1,-3%,0.41
CCCCc1nc(CN(CCC)Cc2cccnc2)c[nH]1,-11%,2.04
Cc1n[nH]c(C)c1CCC(=O)N1C[C@@H](CN2C[C@@H](C)O[C@@H](C)C2)[C@@H](CO)C1,-9%,1.1
O=C(CCc1ccc(F)cc1F)N1C[C@H](O)[C@@H](F)C1,-8%,1.5
O=C(c1cncc(Cl)c1)N1CC[C@H](Nc2ncccn2)[C@@H](O)C1,2%,-0.27
Cc1cc(C)cc(S(=O)(=O)Nc2cnc(N3CCCCCCC3)c(C(=O)O)c2)c1,-13%,1.29
